From the supplement of paper PMC13380429

How the values were obtained:
Conditions in all cases: 72 h
HepG2 [1] = assay: relative viability EC50 (midpoint between 100% and the lowest measured viability); higher = less toxic
Calu-3 [2] = assay: as above
Vero E6 [3] = assay: as above
U2OS [4] = assay: as above
Caco-2 [5] = assay: as above
HepG2 [6] = assay: drug sensitivity score (DSS) for viability; higher = more toxic; extreme values may be limits of the assay
Calu-3 [7] = assay: as above
Vero E6 [8] = assay: as above
U2OS [9] = assay: as above
Caco-2 [10] = assay: as above
HepG2 [11] = assay: cell viability relative to DMSO; higher = less toxic
Calu-3 [12] = assay: as above
Vero E6 [13] = assay: as above
U2OS [14] = assay: as above
Caco-2 [15] = assay: as above

With `Cc1c(C(=O)NN2CCCCC2)nn(-c2ccc(Cl)cc2Cl)c1-c1ccc(I)cc1` [AM-251] the “relative viability EC50” value (HepG2 [1]) was > 10 µM, the “relative viability EC50” value (Calu-3 [2]) was > 10 µM and the “relative viability EC50” value (Vero E6 [3]) was > 10 µM. For the same compound, the “relative viability EC50” value (U2OS [4]) was > 10 µM, the “relative viability EC50” value (Caco-2 [5]) was > 10 µM and the drug sensitivity score (HepG2 [6]) was 0. The drug sensitivity score (Calu-3 [7]) was 0, the drug sensitivity score (Vero E6 [8]) was 0 and the drug sensitivity score (U2OS [9]) was 0. The drug sensitivity score (Caco-2 [10]) was 0.8, the cell viability (HepG2 [11]; 1 nM) was 99.5% and the cell viability (HepG2 [11]; 10 nM) was 104%. It also gave a cell viability (HepG2 [11]; 100 nM) of 114%, a cell viability (HepG2 [11]; 1000 nM) of 93.4% and a cell viability (HepG2 [11]; 10000 nM) of 91.2%. For the same compound, the cell viability (Calu-3 [12]; 1 nM) was 94.4%, the cell viability (Calu-3 [12]; 10 nM) was 93.5% and the cell viability (Calu-3 [12]; 100 nM) was 93.9%. For the same compound, the cell viability (Calu-3 [12]; 1000 nM) was 96.1%, the cell viability (Calu-3 [12]; 10000 nM) was 99.9% and the cell viability (Vero E6 [13]; 1 nM) was 110%. The cell viability (Vero E6 [13]; 10 nM) was 102%, the cell viability (Vero E6 [13]; 100 nM) was 104% and the cell viability (Vero E6 [13]; 1000 nM) was 98.6%. For the same compound, the cell viability (Vero E6 [13]; 10000 nM) was 93.6%, the cell viability (U2OS [14]; 1 nM) was 93.7% and the cell viability (U2OS [14]; 10 nM) was 98.8%. It also gave a cell viability (U2OS [14]; 100 nM) of 93.2%, a cell viability (U2OS [14]; 1000 nM) of 99.4% and a cell viability (U2OS [14]; 10000 nM) of 91.9%. It also gave a cell viability (Caco-2 [15]; 1 nM) of 96.8%, a cell viability (Caco-2 [15]; 10 nM) of 110% and a cell viability (Caco-2 [15]; 100 nM) of 87.8%. The cell viability (Caco-2 [15]; 1000 nM) was 99.3% and the cell viability (Caco-2 [15]; 10000 nM) was 77.6%.
